# Data taken from article PMC10470785.
# Amino acid sequences for entries named in this document (tags omitted).
# UniProt Q9NRW1: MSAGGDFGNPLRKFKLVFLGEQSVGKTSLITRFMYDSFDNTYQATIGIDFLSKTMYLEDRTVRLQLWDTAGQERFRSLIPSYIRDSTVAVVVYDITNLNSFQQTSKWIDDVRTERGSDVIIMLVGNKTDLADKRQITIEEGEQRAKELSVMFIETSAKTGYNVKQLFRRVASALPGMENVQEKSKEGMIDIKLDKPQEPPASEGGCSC
# UniProt P62820: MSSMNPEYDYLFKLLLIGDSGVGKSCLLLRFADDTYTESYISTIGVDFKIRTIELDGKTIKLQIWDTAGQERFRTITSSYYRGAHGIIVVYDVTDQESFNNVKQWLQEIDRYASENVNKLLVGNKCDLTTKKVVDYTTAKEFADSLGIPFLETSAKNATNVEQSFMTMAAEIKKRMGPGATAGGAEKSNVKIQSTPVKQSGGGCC
# UniProt Q15286: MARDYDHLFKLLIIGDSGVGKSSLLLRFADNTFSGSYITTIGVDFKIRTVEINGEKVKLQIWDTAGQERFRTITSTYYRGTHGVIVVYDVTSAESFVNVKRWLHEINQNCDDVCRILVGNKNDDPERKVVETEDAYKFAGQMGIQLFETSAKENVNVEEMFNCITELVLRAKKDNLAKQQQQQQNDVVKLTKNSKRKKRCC
# UniProt A0A0H3MBY4: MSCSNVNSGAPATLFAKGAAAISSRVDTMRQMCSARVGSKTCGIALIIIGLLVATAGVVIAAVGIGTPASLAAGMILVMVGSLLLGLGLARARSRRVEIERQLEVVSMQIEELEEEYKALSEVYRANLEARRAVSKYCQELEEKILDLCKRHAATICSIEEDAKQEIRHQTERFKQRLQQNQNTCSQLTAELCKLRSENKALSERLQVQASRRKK
# UniProt P20339: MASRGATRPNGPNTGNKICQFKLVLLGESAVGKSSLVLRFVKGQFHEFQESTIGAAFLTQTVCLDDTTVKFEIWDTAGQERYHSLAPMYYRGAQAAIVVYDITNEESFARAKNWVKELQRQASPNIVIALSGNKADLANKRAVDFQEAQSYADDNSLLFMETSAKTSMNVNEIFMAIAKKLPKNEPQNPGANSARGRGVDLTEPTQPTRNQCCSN
# These are yes or no findings as the source states them, for the method shown. In cells and extracts the contact can be indirect. Some entries that bind do so weakly or less than the wild type.
# Tests used:
# EGFP-Rab6B (human) = EGFP-Rab6B (human) (UniProt Q9NRW1); test: co-IP; lysates of infected HeLa cells expressing EGFP-Rab proteins; EGFP-Rab precipitated with GFP-Trap_MA beads (anti-GFP), washed with TBS/EDTA buffer; western blot for CpoS(L2)-FLAG
# EGFP-Rab1A (human) = EGFP-Rab1A (human) (UniProt P62820); test: as above
# EGFP-Rab35 (human) = EGFP-Rab35 (human) (UniProt Q15286); test: as above
# [1] = target: CpoS(L2)-FLAG (C. trachomatis serovar L2); test: co-IP; HeLa cells infected with strains expressing CpoS-FLAG (ortholog or variant) and transfected with EGFP-Rab plasmids; CpoS-FLAG precipitated from lysates at 26 hpi with ANTI-FLAG M2 magnetic beads; western blot
Substance,binding (EGFP-Rab6B (human)),binding (EGFP-Rab1A (human)),binding (EGFP-Rab35 (human)),binding [1]
CpoS(L2)-FLAG (from UniProt A0A0H3MBY4 1-215),binds,binds,binds,–
EGFP-Rab5A (from UniProt P20339 1-215),–,–,–,no binding
EGFP-Rab1A (from UniProt P62820 1-205),–,–,–,binds
EGFP-Rab35 (from UniProt Q15286 1-201),–,–,–,binds
